Data published in PubChem BioAssay (NCI).
“And” between values parts separate entries of the source, which are not always exact repeats. Equal entries are not always repeated.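 Where inhibition never reached the appropriate level, the endpoint shown equals the highest concentration tested. Otherwise, values were interpolated linearly from a five-concentration, 48-hour dose response in 96-well plates. GI50 marks 50% less growth. TGI: concentration producing complete growth inhibition.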

What follows are compounds tested on NCI-H322M lung (assay: growth of human tumour cells (NCI), 48 h).

Compound	TGI	GI50
[C-]#[O+].[Cl][Sn]([Cl])[Cl].[Cl][Sn]([Cl])[Cl].[Pt].c1ccncc1	> 100 µM	
O=C(Nc1ccccc1Br)c1cccc([N+](=O)[O-])c1O	38.6 µM	
COP1(=O)NCc2ncccc2O1 (stereo not drawn)	> 100 µM	
Cc1ccc2c(=O)c(-c3nnc(N)s3)c[nH]c2n1	> 100 µM	
COc1ccc(-c2cc(/C=C3\C(=O)Nc4ccc(OC)cc43)[nH]n2)cc1	> 100 µM	> 100 µM
CCCN(CCC)CCCNC(=O)c1cc2c(-c3ccc(OC)c(OC)c3)nn(C)c2s1	> 100 µM	35.8 µM
COc1cc(C(C)c2cc3c(cc2OCCCCOc2cc4c(cc2C(C)c2cc(OC)c(OC)c(OC)c2)OCO4)OCO3)cc(OC)c1OC (stereo not drawn)	> 100 µM	
COc1c2c(cc3c(CCc4ccccc4)cc(=O)oc13)CCC(C)(C)O2	> 100 µM	
CC1=C(/C=C/C(C)=C/C=C/C(C)=C/C(=O)Nc2ccc(O)cc2)C(C)(C)CCC1	29.3 µM and 19.4 µM	14.7 µM
CC[O-].Cc1ccc2cccc([O-])c2n1.Cc1ccc2cccc([O-])c2n1.Cc1ccc2cccc([O-])c2n1.[Ti+4]	> 61.5 µM	35.5 µM
OC(COc1cccc2ccccc12)CN1CCN(c2ccccc2)CC1 (stereo not drawn)	28.9 µM	14.5 µM
CC(=O)OCC12C(OC(C)=O)C[C@@H](C)C3(CC(c4ccoc4)OC3=O)C1CCC(O)C21CO1 (stereo partly drawn)	> 100 µM	
CCOC(=O)C(=O)N=Nc1nc2c(O)c3ccccc3c(O)c2s1	29.3 µM	
COC(=O)N/N=C/c1oc(-c2ccccc2)c(-c2ccccc2)c1[N+](=O)[O-]	> 100 µM	
CC[C@@H](C(=O)[C@@H](C)[C@@H](O)[C@H](C)CCc1ccc(C)c(O)c1C(=O)O)[C@H]1O[C@](CC)([C@H]2CC[C@](O)(CC)[C@H](C)O2)C[C@@H]1C	9.13 µM	
COC(=NCCC1=CCCCC1)OC	> 100 µM	
O=C(O)C1CCCCN1C(=O)c1ccccc1 (stereo not drawn)	> 100 µM	

Compound	TGI	GI50
O=C(N/N=C1/C(=O)c2c3ccccc3cc3cccc1c23)c1cccc(Cl)c1	> 100 µM	
NC(=S)N1N=C2c3ccccc3CC[C@H]2[C@@H]1c1cccs1	> 100 µM	
COc1ccc(/C=C\c2cc(OC)c(OC)c(OC)c2)cc1OC(=O)c1cccc(Cn2cc(CCOC(=O)c3cccc(Cn4nnc5c4C(=O)c4ccccc4C5=O)c3)nn2)c1	> 100 µM	0.0541 µM
CC1(C)CC2C=C(C=O)C3(C=O)CC3(C)C2C1 (stereo not drawn)	25.4 µM	
N#Cc1c(-c2ccccc2)cc(-c2ccccc2)n(CCCCC(=O)NO)c1=O	38.2 µM	15.5 µM
Nc1ccccc1NC(=O)c1ccc(CN2CCC/C(=C\c3cccc(Cl)c3)C2=O)cc1	> 100 µM	0.525 µM
CCCCNC(=O)Nc1c(C(N)=O)c2n(c1C(=O)OCC)CCCCC2	> 100 µM	
CC[C@H](C)n1cc(C)c2c(C(=O)NCc3c(C)cc(C)[nH]c3=O)cc(-c3ccc(N4CCNCC4)nc3)cc21	29.1 µM and 30 µM	15.7 µM
O=C1C2CCC(C2)C12CC1(c3ccccc3)C(=O)c3ccccc3N1O2 (stereo not drawn)	> 100 µM	
Cc1cc2c(cc1C)[n+](=O)c(N1CCN(c3ccc([N+](=O)[O-])cc3)CC1)c(C#N)n2[O-]	> 100 µM	
O=c1cc(-c2ccccc2)oc2ccc(Oc3nnnn3-c3ccccc3)cc12	> 100 µM	
c1ccc2c(c1)nc1n2CSC1	> 100 µM	
O=C(CCc1ccc(O)c(O)c1)NCCc1cc(OCc2ccccc2)cc(OCc2ccccc2)c1	33.9 µM	
CN(C)CCN=Cc1c2ccccc2c(=O)n2c1oc1ccccc12	17.1 µM	5.27 µM
COc1ccccc1S(=O)Nc1ccccc1 (stereo not drawn)	> 100 µM	
COc1ccc(N2C(=O)/C(=C\c3cccc(Oc4ccccc4)c3)S(=O)(=O)C2c2ccccc2)cc1 (stereo not drawn)	> 100 µM	
